Assay results: PMC12040169 (PLOS Biology, 2025)
The other results are listed elsewhere or left out.

Each molecule was assayed on T1, C. trachomatis L2/434/Bu expressing GFP (CTL2-GFP). Settings: total inclusion area; 28.5 h, 10 µM; inhibitor.
T1 construct: L2/434/Bu GFP intracellular growth in HeLa cells
Parameters: species or system HeLa; C. trachomatis total inclusion area by high-content imaging, normalised to DMSO
In short: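 Following bulk GFP and resorufin fluorescence reads, infected cells were fixed, Hoechst-stained and imaged on a high-content platform. Inclusion total area and number per well served as growth proxies; nuclei counts indicated host viability. MICs were derived as for the fluorescence assay.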

Structure (SMILES) | % of control remaining
Cc1cc(COc2nc3ccccc3nc2N2CCCC2C(=O)OC(C)(C)C)no1 (stereo not drawn) [CBK173753] | 72.7543
O=C(NCc1csc(-c2ccccc2)n1)C1CC=CCC1 (stereo not drawn) [CBK092348] | 101.435
Cc1cccc(-c2ccc3c(c2)C(=O)N2CC[C@H](NC(=O)N4CCOCC4)[C@H]2C(=O)N3)c1C [CBK289347] | 105.162
N#Cc1c(NC(=O)CN2CCc3ccccc3C2)sc2c1CCCC2 [CBK269126] | 89.0647
Nc1ncc(-c2cccc(OC(F)(F)F)c2)nc1N1CCN(CCO)CC1 [CBK063435] | 94.5799
CNc1ccc(OC(=O)c2ccco2)cc1 [CBK010779] | 48.4964
Cc1ccc2c(c1)CC(=O)NC21CCN(C(=O)C2CC2C(=O)O)CC1 (stereo not drawn) [CBK047258] | 97.8383
Brc1ccc(-n2c(SC/C=C/c3ccccc3)nnc2-c2ccncc2)cc1 [CBK266257] | 120.41
Cc1cc(C)n(CCCN(C)Cc2c(C)nc3ccccn23)n1 [CBK281901] | 87.3526
CCCn1c(CN2CCN(CCO)CC2)nc2ccccc21 [CBK269363] | 102.877
Cc1sc(NC(=S)NC(=O)Cc2cccc3ccccc23)c(C(N)=O)c1C [CBK266344] | 118.58
COc1ccc([N+](=O)[O-])cc1-c1ccc(-c2nc(-c3ccccc3)c(-c3ccccc3)[nH]2)o1 [CBK262497] | 109.558
Cc1nn2c(-c3cccc(NC(=O)CN4CCOCC4)c3)nnc2c2ccccc12 [CBK268383] | 109.064
Cc1cccnc1C(NC(=O)C1CCN(C/C=C/c2ccco2)CC1)c1ccc(Cl)cc1 (stereo not drawn) [CBK148201] | 100.628
Cc1ccc(NC(=O)CN2C(=O)S/C(=C\c3cc(C)n(-c4ccc(C(=O)O)cc4)c3C)C2=O)cc1 [CBK264465] | 114.61
O=C(Nc1cc2ccccc2c(Br)n1)c1ccc(C(F)(F)F)cc1[N+](=O)[O-] [CBK063299] | 88.616
NC(=O)CSc1nnc2ccc3ccccc3n12 [CBK287794] | 71.1348
O=C(c1n[nH]c2ccccc12)N1CCc2ccccc21 [CBK200282] | 100.258
O=C(Nc1ccc(Cc2ccncc2)cc1)c1ccc(-c2cc3ccccc3oc2=O)cc1 [CBK268952] | 93.8127
OC1(Cn2cnc3ccccc32)CCN(CCc2ccccc2)CC1 [CBK284789] | 107.269
CCOC(=O)N1CCC(NS(=O)(=O)c2cc(C(=O)OC)n(C)c2)CC1 [CBK304688] | 69.9404
Cc1cnc(CNC(=O)N2CCN(c3cc(C(F)(F)F)ccn3)CC2)cn1 [CBK162320] | 37.083
Cc1ccc(SCC(=O)Nc2cc(C)on2)cc1 [CBK057070] | 78.5782
Cc1nc(-c2ccccc2)sc1C(=O)C1=C(O)C(=O)N(CCN2CCOCC2)C1c1ccccc1F (stereo not drawn) [CBK266511] | 133.066
Cn1ccnc1C1(O)CC2CCC(C1)N2C(=O)c1ccccc1F (stereo not drawn) [CBK284085] | 93.985
Cn1c2ccccc2c2nnc(SCCCC(=O)c3ccc4c(c3)OCCO4)nc21 [CBK268750] | 129.743

Structure (SMILES) | % of control remaining
COCCN(C(=O)CSc1ccc2ccccc2n1)C1CCS(=O)(=O)C1 (stereo not drawn) [CBK304988] | 87.3393
Fc1cc(Br)c(CNCc2ccno2)c(N2CCCCC2)c1F [CBK304723] | 80.9406
CN1CCN(C(=O)CCn2c(C(F)(F)F)cc3cccnc32)CC1 [CBK284896] | 95.5458
N=C(N)NCC(=O)N(CCc1cc(C(F)(F)F)cc(C(F)(F)F)c1)c1cccc2ccccc12 [CBK001122T] | 30.6099
OCCC1CNCCN1Cc1ccc(F)c(F)c1 (stereo not drawn) [CBK269824] | 90.0226
Cc1cc2c(s1)c1cnn(CC(=O)N3CCCC3)c(=O)c1n2C [CBK284153] | 85.1719
O=C(NCc1ccncc1)OCCc1ccncc1 [CBK200133] | 94.3487
CC(=O)Nc1ccc(C(=O)N2CCNC(=O)C2Cc2ccccc2-c2cccc(C)c2)cc1 (stereo not drawn) [CBK285837] | 108.4
Cc1ccc(S(=O)(=O)N2c3ccc(C(=O)O)cc3CC2C)cc1 (stereo not drawn) [CBK286584] | 84.918
N#C/C(=C/c1ccc(-c2ccc(S(N)(=O)=O)cc2)o1)S(=O)(=O)c1ccc(Cl)cc1 [CBK266383] | 77.4586
CCOc1cc(OCC)cc(C(=O)N2CCC3(CC2)CC(=O)c2ccc(OCC)c(C)c2O3)c1 [CBK168015] | 57.2441
CCOc1ccccc1OCC(=O)NN [CBK261782] | 91.8612
NS(=O)(=O)c1ccc(/N=C/c2cccc(OCc3ccccc3)c2)cc1 [CBK261594] | 79.6202
CCCC1CCN(Cc2ccn(Cc3ccc(S(C)(=O)=O)cc3)c2)CC1 [CBK144937] | 103.238
Cc1cc(C)c(C)c(OCC(=O)N(Cc2nc(-c3ccccc3)no2)C2CCCCC2)c1 [CBK268974] | 89.133
O=C(CN1C(=O)c2ccccc2C1=O)Nn1cnnc1 [CBK263789] | 114.822
CO[C@@]12CC[C@@H](OCC(=O)O)C[C@@H]1N(Cc1ccccc1C)CC2 [CBK307548] | 30.9319
COc1ncc(-c2nccnc2NCCc2ccncc2)c(OC)n1 [CBK038074] | 128.777
COc1ccc(Cc2c(C)nc3c(C(=O)NCCSC)cnn3c2C)cc1 [CBK162191] | 81.1859
CN(C)CCCNC(=O)c1cc(-c2ccc(Cl)cc2)on1 [CBK116557] | 100.293
N#Cc1cccnc1N1CCC(NC(=O)Cn2cccnc2=O)CC1 [CBK307275] | 62.7433
CCNS(=O)(=O)c1ccc(NC(=O)Nc2cc(C)ccc2OC)cc1 [CBK266850] | 94.6933
CCOC(=O)c1[nH]c2ccccc2c1NC(=O)c1ccc(OC(F)(F)F)cc1 [CBK160157] | 97.2057
Cc1nc(CNC(=O)NC2CCCN(c3ncccn3)C2)cs1 (stereo not drawn) [CBK305640] | 87.2356
c1ccc(-c2cc(CC3(NCc4cc5ccccc5o4)COC3)no2)nc1 [CBK289239] | 111.673
Cc1nc2c(c(=O)[nH]1)CN(CC1CCCCC1)CC2 [CBK283947] | 66.2052

Structure (SMILES) | % of control remaining
Clc1ccc(COc2nccnc2N2CCN(Cc3ccc4c(c3)OCO4)CC2)cc1Cl [CBK083078T] | 81.769
O=C(CO)N1CC2(CCN(Cc3cccc4cccnc34)CC2)c2ccccc21 [CBK137004] | 74.4044
COc1ncc(-c2cncc(N3CCN(c4ccccc4C#N)CC3)n2)c(OC)n1 [CBK037872] | 88.8821
NNC(=O)CCc1nc2cc(O)ccc2[nH]1 [CBK263633] | 99.9552
CCOCCCNC(=O)c1cnn2c(C)c(Cc3cccc(OC)c3)c(C)nc12 [CBK162056] | 94.391
O=C1COc2ccccc2C/C=C/CC2(CCN(C(=O)c3cncc(O)c3)CC2)C(=O)NCCN1 [CBK291989] | 128.78
COc1cccc(C(NC(=O)c2cccc(Cn3ccnc3C)c2)c2ccccc2)c1 (stereo not drawn) [CBK285620] | 92.3862
NC(=O)C1(Cc2ccc(-c3ccccc3)cc2)CCN(C(=O)Cc2ccccc2)CC1 [CBK285771] | 76.7203
CCCc1cc(C(=O)NC2(CN3CCCC3)CCCCC2)[nH]n1 [CBK282464] | 110.37
O=C(c1cc(F)c(F)cc1F)N1CCC2(CCCN(CCN3CCOCC3)C2)C1 (stereo not drawn) [CBK132015] | 102.212
CC(=O)NCc1cccc(-c2cc(C(=O)O)cnc2-c2ccc(Cl)cc2)c1 [CBK156194] | 87.0451
O=[N+]([O-])c1ccc(N2CCN(S(=O)(=O)c3ccc4ccccc4c3)CC2)cc1NC1CC1 [CBK264361] | 112.686
O=C(CSCc1ccccc1)Nc1ccc(O)cc1C(=O)O [CBK126817] | 93.4073
O=C(NCCCO)C1CCCN(S(=O)(=O)c2ccc3ccccc3c2)C1 (stereo not drawn) [CBK270141] | 77.1318
O=C(NCc1ccc(-c2csnn2)cc1)c1cccc(C(F)(F)F)c1 [CBK149293] | 98.0167
CC(C)CNC(=O)c1cc([C@H]2CC[C@H](CNC(=O)Cn3cccn3)CC2)nc2ccccc12 [CBK285860] | 105.278
Cc1cc(CNC(=O)CCc2c(C)nc3nc(N)nn3c2C)ccc1F [CBK306212] | 113.072
Cc1nc2ccccn2c1-c1csc(N)n1 [CBK288628B] | 104.963
c1ccc(CC(Cc2nc3ccccc3[nH]2)c2nc3ccccc3[nH]2)cc1 (stereo not drawn) [CBK150452] | 89.7112
O=S(=O)(c1ccccc1)C1CC1 [CBK023184] | 87.9279
CCOC(=O)c1cnn(C2CCCN(Cc3cccs3)C2)c1 (stereo not drawn) [CBK305121] | 91.0788
Cn1nccc1C(=O)N[C@H]1C2CCCCC2[C@@H]1c1ccccc1 (stereo partly drawn) [CBK285127] | 105.452
CC(C)C[C@@H](C(=O)N1CCC(C(=O)O)CC1)n1c(=O)[nH]c2ccccc2c1=O [CBK286762] | 76.4224
CCS(=O)(=O)Nc1ccc(C2=NN(S(=O)(=O)c3ccc(F)cc3)C(c3ccccc3C)C2)cc1 (stereo not drawn) [CBK269161] | 102.98
Cc1cccc(-c2csc3c(=O)[nH]c(N4CCC(C(=O)NCCN(C)C)CC4)nc23)c1 [CBK215633] | 124.137
Cc1cc(C)n(CCn2cc(-c3ncc[nH]3)nn2)c(=O)n1 [CBK307554] | 86.5594
